Reference: publication PMC4336329 (PLoS ONE, 2015)
In all, about 310,000 compounds went through this assay and about 14,000 (4.5%) showed an effect of 50% or more. The effect is printed as a negative number. The list shows a part of the results.

Target: human ether-à-go-go-related gene (hERG) potassium channel (human, UniProt Q12809)
Assay: primary screen, population patch clamp on CHO cells stably expressing hERG
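Further: peak tail current of the secondary pulse compared with the same well before compound.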

human ether-à-go-go-related gene (hERG) potassium channel, sequence (Q12809 whole entry, looked up): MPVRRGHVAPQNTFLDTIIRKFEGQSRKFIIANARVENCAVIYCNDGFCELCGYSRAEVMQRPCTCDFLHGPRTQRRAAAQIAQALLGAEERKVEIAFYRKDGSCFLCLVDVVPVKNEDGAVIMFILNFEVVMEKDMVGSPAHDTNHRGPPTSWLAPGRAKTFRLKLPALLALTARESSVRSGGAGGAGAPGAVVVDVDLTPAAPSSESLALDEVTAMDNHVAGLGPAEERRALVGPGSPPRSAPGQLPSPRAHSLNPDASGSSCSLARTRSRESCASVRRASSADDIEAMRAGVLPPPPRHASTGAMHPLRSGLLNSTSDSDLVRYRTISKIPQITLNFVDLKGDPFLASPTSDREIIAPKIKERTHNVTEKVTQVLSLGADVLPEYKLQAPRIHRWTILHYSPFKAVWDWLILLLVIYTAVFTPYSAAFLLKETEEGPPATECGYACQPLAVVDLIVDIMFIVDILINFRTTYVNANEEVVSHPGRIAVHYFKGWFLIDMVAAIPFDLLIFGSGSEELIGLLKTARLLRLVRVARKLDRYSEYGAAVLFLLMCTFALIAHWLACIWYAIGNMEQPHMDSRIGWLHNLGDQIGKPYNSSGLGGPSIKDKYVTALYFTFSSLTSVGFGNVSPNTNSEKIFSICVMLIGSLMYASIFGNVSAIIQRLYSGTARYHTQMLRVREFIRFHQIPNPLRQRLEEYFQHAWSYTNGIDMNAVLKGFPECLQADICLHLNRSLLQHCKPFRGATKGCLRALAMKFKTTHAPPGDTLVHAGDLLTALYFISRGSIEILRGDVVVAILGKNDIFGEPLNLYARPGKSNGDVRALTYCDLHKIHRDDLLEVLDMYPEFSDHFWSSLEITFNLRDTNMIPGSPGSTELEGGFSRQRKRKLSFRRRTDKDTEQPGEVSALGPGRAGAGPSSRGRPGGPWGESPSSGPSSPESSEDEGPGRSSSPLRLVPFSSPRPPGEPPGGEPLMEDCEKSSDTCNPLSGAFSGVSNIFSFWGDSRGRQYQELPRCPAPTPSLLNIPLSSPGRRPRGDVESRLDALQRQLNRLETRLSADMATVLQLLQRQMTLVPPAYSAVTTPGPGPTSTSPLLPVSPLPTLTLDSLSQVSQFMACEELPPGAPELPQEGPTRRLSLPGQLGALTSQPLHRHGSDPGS

Structure (SMILES)	hERG current change (%, negative = inhibition) at 10uM
Cc1cccc(C)c1OCC(O)CNC(C)C.Cl (centres unmarked)	5.06%
CCOC(=O)CN1C=C(c2ccc3ccccc3n2)C(C[N+](=O)[O-])c2ccccc21 (centres unmarked)	-16%
C/C(=N/NC(=O)c1ccc2c(c1)OCO2)c1cccc(NC(=O)C(C)(C)C)c1	1.11%
CCC(CC)C(=O)Nc1cc([N+](=O)[O-])ccc1Cl	-4.02%
O=C(NC1(C(F)(F)F)NC(=O)N(Cc2ccco2)C1=O)c1cccnc1 (centres unmarked)	7.28%
O=C(NCc1ccccc1)C1CCCN(S(=O)(=O)c2ccc(Br)cc2)C1 (centres unmarked)	23.4%
CC(=O)c1ccc(N2CCCCC2)c(F)c1	28%
Cc1c(C=C2C(=O)N(C)C(=O)N(C)C2=O)c(=O)n(-c2ccccc2)n1C	5.86%
COC(=O)c1ccccc1NC(=O)C12CC3CC(C1)CC(n1cnc(Cl)n1)(C3)C2	-38.5%
C/C(=C(\C#N)C(=O)NCCCN1CCOCC1)N(C)C	9.66%
Cc1c(CC(=O)O)c(=O)oc2c(C)c3occ(-c4ccccc4)c3cc12	12.1%
O=C(c1ccc2c(c1)CCN2S(=O)(=O)c1ccccc1)N1CCN(c2ccc(F)cc2)CC1	-15.5%
NS(=O)(=O)c1ccc(CNC(=O)c2cccc(S(=O)(=O)N3CCc4ccccc43)c2)cc1	2.44%
CCOC(=O)C1CCN(C(=O)Cc2c(F)cccc2Cl)CC1	8.56%
O=C(COc1ccc2cc(Br)ccc2c1Br)N1CCOCC1	3.11%
O=C1C=C(c2ccc3[nH]ccc3c2)C[C@@H](c2ccc(Cl)cc2)C1	5.06%
CC(C)(O)C#Cc1ccc(C(=O)NC(CCCNC(N)=O)C(=O)O)s1 (centres unmarked)	12.4%
COc1cccc(NC(=O)CNC(=O)[C@@H]2Cc3ccccc3CN2C(=O)OC(C)(C)C)c1	11%
CN(C)c1ccc(CNCC2CCCO2)cc1.Cl (centres unmarked)	10.5%

Structure (SMILES)	hERG current change (%, negative = inhibition) at 10uM
O=C(Cc1cc(=O)[nH][nH]1)N/N=C/C=C/c1ccccc1	8.93%
COC(=O)COc1ccc(S(=O)(=O)N2CCOCC2)cc1	2.77%
O=C(NCCc1ccc(Cl)cc1)C1CCN(c2ncccn2)CC1	0.669%
CCOC(=O)c1cc(-c2ccc(C)cc2)n(CC(=O)NCc2ccco2)c1C	12.2%
O=C(Nc1ccccc1C(=O)NCCCN1CCOCC1)c1ccccc1	6.8%
Cc1cc(F)ccc1NS(=O)(=O)c1c(C(=O)N2CCOCC2)c(C)n(C)c1C	4.2%
CS(=O)(=O)N(CCC#N)Cc1ccc(C=O)o1	15.5%
CCC(C)(C)n1nnnc1C(C(C)C)N(Cc1ccco1)Cc1cc2cc3c(cc2[nH]c1=O)OCO3 (centres unmarked)	-2.62%
Cc1cc(C)cc(OCC(=O)NNC(=O)c2cc3ccccc3o2)c1	14.1%
Cc1cccc(N(C)S(=O)(=O)c2ccc(-c3cnc(C4CC4)o3)cc2)c1	9.02%
Cc1ccc(SCC(=O)Nc2cccc(C)c2)cc1	47.2%
COC(=O)c1cnc2ccccc2n1	14.6%
Cc1cc(OCc2cc(C(=O)NCC3(C)COC3)no2)cc(C)c1Cl	-16.4%
COc1ccc(C(=O)OCC(=O)NC(=O)NC2CCCC2)cc1OC	-8.44%
O=C(NCN1CCCCC1)c1cccnc1	5.75%
COc1cc(-c2nc(-c3ccncc3)no2)cc(OC)c1OC	16.6%
CC(=O)N/C(=C\c1ccccc1)C(=O)N1CCOCC1	20.1%
O=C(N/N=C(\Cc1ncc[nH]1)c1ccccc1)c1ccccc1	19.4%
CC(Oc1ccc(F)cc1)C(=O)Nc1cc(C(F)(F)F)ccc1-n1cncn1 (centres unmarked)	-33.9%

Structure (SMILES)	hERG current change (%, negative = inhibition) at 10uM
COc1cc(OC)cc(C(=O)Nc2cc(NC(=O)c3ccco3)ccc2OC)c1	-11.9%
Cc1c(C(=O)O)cccc1-n1c(C)cc(/C=C(/C#N)C(=O)NCc2ccccc2)c1C	11.2%
CC(C)(O)C#Cc1ccc(C(=O)N2CCC(CCC(=O)NC3CC3)CC2)cc1	-26.4%
CCOc1ccc(/C(CC)=N/NC(=O)C2(C)CC2(Br)Br)cc1 (centres unmarked)	11.9%
C[C@@H]1CN(C2CCC(C#N)(c3ccc(F)cc3)CC2)CC[C@]1(C(=O)O)c1ccccc1.Cl (some centres unmarked)	-33.2%
COc1ccc(C(=O)Nc2ccccc2SCc2cc(=O)n3nc(C)sc3n2)cc1OC	8.33%
COc1ccccc1NC(=O)Nc1nnc(CC(=O)Nc2cccc(C)c2)s1	7.57%
O=c1[nH]c2ccc(S(=O)(=O)Nc3ccccc3O)cc2[nH]1	25.8%
CN(C)C(/C=C/Nc1ccc([N+](=O)[O-])cc1)=C(C#N)C#N	-33%
COC(=O)C1=C(c2cc3ccccc3o2)C[C@@H]2CC[C@H]1N2C(=O)NC1CCCCC1	-20%
COc1ccccc1C(=O)NCCC(=O)NCC(C)(C)N1CCOCC1	16.6%
O=C(N/N=C/c1c[nH]c2ccc(Br)cc12)C1CC1	4.6%
COC(=O)c1ccc(CSc2nnc(NC(=O)C3CC(=O)N(Cc4ccc(C)cc4)C3)s2)cc1 (centres unmarked)	8.78%
CCOC(=O)c1ccc(NC(=O)CSc2nncn2-c2cccnc2)cc1	6.93%
O=C(c1cc2ccccc2[nH]1)N(Cc1cccnc1)CC1CCCN(C2CCCCC2)C1 (centres unmarked)	-73.7%
CCOC(=O)C(/C=C(\C#N)C(=O)OCC)=C(/N)N1CCN(c2c(C)cccc2C)CC1	10.5%
O=C(Nc1cccc(O)c1)c1ccc(C(F)(F)F)cc1	11.5%
CCOC(=O)Cc1csc(NC(=O)CCCCCN2C(=O)c3cccc4cccc(c34)C2=O)n1	7.04%
